In the supplement of paper PMC3334620:
Whole data set: some 33,000 sequences, median “E-score (-0.5 to 0.5)” near -0.01, cut for the highest 2% near 0.26. Some of the results follow.

Target: Ste12 (UniProt P13574)
Assay: PBM E-score (8-mer binding enrichment) (E-score (-0.5 to 0.5)); higher = stronger / more preferred TF binding; most listed sequences are background and not binding sites
Conditions: protein concentration: 200 nM; construct: GST-DNA-binding domain
Method in brief: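 Universal all-10-mer Agilent arrays, fresh or stripped once, were converted to double-stranded form by primer extension. GST-tagged yeast transcription factors from PURExpress in vitro transcription/translation, full-length or DNA-binding domain only, were applied at about 100-200 nM and detected with fluorescent anti-GST. After masliner normalisation, the Universal PBM Analysis Suite scored each ungapped eight-base word together with its reverse complement by E-score.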

Row | Sequence | PBM E-score
1 | GACCATGC | -0.139
2 | GTAATGGA | -0.00779
3 | GCCTGACC | -0.161
4 | AGGTGAGC | 0.03
5 | ACCCCCTG | -0.291
6 | AGTGGTGC | -0.172
7 | ACCGTGGA | 0.00515
8 | CAGTAAGA | 0.12
9 | CCGACGAA | 0.225
10 | ACTCACGG | 0.0185
11 | GCCTAGGC | 0.123
12 | ACGTCTAG | -0.124
13 | CCTGGCTC | -0.105
14 | AGTGACCG | -0.0864
15 | CGTGGCAG | -0.0888
16 | GTTAGGGA | -0.0714
17 | CGCGTGGA | -0.217
18 | ACCACGCG | 0.0389
19 | ATAGTGGG | -0.0619
20 | ACTAAACA | 0.208
21 | CGTCATTA | -0.0247
22 | AACCAACA | 0.0317
23 | ATCATCCC | -0.0439
24 | CGTTTATC | 0.158
25 | GTCAACCA | -0.0406

Row | Sequence | PBM E-score
26 | ATGACGAC | -0.0688
27 | GGGGTCAA | -0.00447
28 | AAACGAGA | 0.122
29 | AATGCTTA | -0.0299
30 | CGCCCGCA | 0.0259
31 | CACGCTAA | -0.0383
32 | AGTGCCTG | -0.0408
33 | AGCATGCC | -0.114
34 | GGAAGTCA | 0.0608
35 | GCCCCCTA | -0.322
36 | AGATCGAG | 0.0012
37 | GCTGCCCC | -0.00836
38 | AGGCATGG | -0.0351
39 | ACCCATAA | 0.0672
40 | CAGTTAAC | 0.0481
41 | CGGACTGC | -0.162
42 | AATGCATG | 0.084
43 | ATTGAGCG | 0.0537
44 | CGTAAATA | 0.0849
45 | ATTTTCCG | 0.318
46 | ATTCGTTA | 0.199
47 | AATCTTGA | -0.022
48 | GTCGATCA | -0.0573
49 | GGTTTCAA | 0.416
50 | GCCCGGTA | -0.128

Row | Sequence | PBM E-score
51 | ACTTTCTC | 0.0795
52 | CCAATCGA | 0.067
53 | GATACTTA | -0.0466
54 | AACATAAG | 0.289
55 | CACTCAGG | -0.0356
56 | AACCCACC | 0.213
57 | GACACCGA | 0.0306
58 | AGCAGCTA | -0.221
59 | ACTGTTTA | 0.165
60 | AGTCTCAG | 0.0505
61 | ATCTACTA | 0.152
62 | AAGCCATG | -0.22
63 | ATGTTAAC | 0.0699
64 | CTTCCAAG | -0.112
65 | GTTGCATA | -0.00189
66 | ATCTCGCG | 0.0408
67 | GAGCACAC | -0.265
68 | CAACTGGG | -0.103
69 | GATCCCCA | 0.0544
70 | CGAATCTA | 0.0242
71 | TGGCAGAA | 0.164
72 | CCCTGTTC | -0.243
73 | AAACTCCC | 0.00124
74 | AAGATTAG | 0.0478
75 | CTTCAACC | 0.0218

Row | Sequence | PBM E-score
76 | GCAGGCCC | -0.0254
77 | ATATGGAC | 0.00562
78 | CCCATTCC | -0.178
79 | ATGAAATA | 0.144
80 | GGGTAGAA | 0.0664
81 | ACCCAACG | 0.237
82 | ATCCATAC | 0.104
83 | GGGAGTAC | -0.12
84 | TGAACTCA | -0.106
85 | GCCCTGAA | 0.0135
86 | AATCGCTA | 0.0223
87 | CCTAAAGC | -0.0262
88 | CAGTTGAC | -0.0391
89 | CCGCGCCA | 0.0646
90 | GCGTTGAA | 0.114
91 | AATAGAAC | 0.00631
92 | CTAGTAGA | 0.129
93 | CACGGCCC | -0.117
94 | CTTGGGAA | 0.00119
95 | AGCGCCCG | -0.15
96 | ACACCGTC | -0.0861
97 | ACGATGCT | -0.0622
98 | AACTAGAA | 0.142
99 | GTCAGGAC | -0.14
100 | CCTAACCC | -0.281

Row | Sequence | PBM E-score
101 | GCCTTAGC | -0.0576
102 | GTGGTCTA | -0.162
103 | GATGTCCC | -0.062
104 | ATTTTCGA | -0.0166
105 | CAATGGTC | 0.0803
106 | CAAATCCG | -0.0471
107 | GAACACAC | -0.0544
108 | CAGCAGGA | 0.0817
109 | AACCGGGA | 0.0767
110 | AAGGGAAG | 0.0343
111 | CTTGGTCC | -0.156
112 | CACAACAG | -0.139
113 | AGAATACG | 0.162
114 | AAAGGTTC | -0.154
115 | TCAGTGCA | 0.0371
116 | AATTAACA | 0.152
117 | TGGCGACA | -0.155
118 | TAAAACTA | 0.136
119 | ATCCGGGG | 0.0794
120 | ATAATGGC | -0.00614
121 | GTCGAAAA | 0.0735
122 | AATGCTCC | -0.0685
123 | AGCCTGGG | -0.0222
124 | CAACCTAG | 0.133
125 | CAGTCCCA | -0.0439

Row | Sequence | PBM E-score
126 | AGAAGTTC | -0.0361
127 | CTATACGC | -0.0471
128 | CTGCTTCC | -0.0572
129 | GGGGGACC | -0.0664
130 | CGATCTAA | 0.113
131 | AACCCAGT | 0.0131
132 | AAAGCATT | -0.0706
133 | CCATGCAA | 0.25
134 | GCGACTAC | -0.089
135 | ACAACTCC | -0.0227
136 | ACTGGCTG | -0.0806
137 | AAGGTGTA | -0.0652
138 | CACTGCCA | 0.0649
139 | AAATCCAG | 0.0283
140 | GTTCGTAA | 0.0614
141 | GTTGTCCA | -0.0323
142 | AAGTACTC | -0.0263
143 | CAATAGTA | 0.121
144 | AGAATGAT | 0.231
145 | CTTTAGTA | -0.0182
146 | AGCTGTGA | -0.0616
147 | GCGCCGGA | -0.0097
148 | CGGCGATC | -0.0156
149 | CCGGCAGA | -0.115
150 | TCGGTGCA | -0.181

Row | Sequence | PBM E-score
151 | CTCACATA | 0.127
152 | TAGTGGAA | -0.162
153 | TGAAGGCA | -0.018
154 | CATGCATA | 0.04
155 | GCTTAACA | -0.0491
156 | CGGCCCCA | -0.335
157 | ATCGAGCC | -0.0583
158 | GAGTCCTA | -0.179
159 | ATAGGGTA | 0.0604
160 | AACTCCAC | 0.0173
161 | AAGGTCAA | 0.0712
162 | GCAGAGCA | -0.0242
163 | CTTGCGAC | -0.128
164 | ATTTGGAA | 0.157
165 | TAATTCCA | 0.161
166 | CTAGGATC | -0.105
167 | AGATTAGC | -0.161
168 | GTGCAGAA | 0.129
169 | AGAGACAG | -0.0163
170 | GACCAGGC | -0.077
171 | ACGCTTAT | 0.0163
172 | GTCACTTA | 0.133
